This is an account of results in PubChem BioAssay AID360 (National Center for Advancing Translational Sciences (NCATS), 2006).

Each structure is given as a SMILES string. The whole screen tested about 48,000 compounds, of which about 550 (1.1%) were called active. Roughly 4% stayed inconclusive and do not appear here. No stated cut-off is given here; in the data, active means potency below about 15 µM; inconclusive means mostly about 16 µM to 33 µM; inactive means weaker than that. This is one part of the list.
Potency means the concentration at half of the fitted maximal effect.

Chain of UniProt P04062 (P04062 whole entry, looked up): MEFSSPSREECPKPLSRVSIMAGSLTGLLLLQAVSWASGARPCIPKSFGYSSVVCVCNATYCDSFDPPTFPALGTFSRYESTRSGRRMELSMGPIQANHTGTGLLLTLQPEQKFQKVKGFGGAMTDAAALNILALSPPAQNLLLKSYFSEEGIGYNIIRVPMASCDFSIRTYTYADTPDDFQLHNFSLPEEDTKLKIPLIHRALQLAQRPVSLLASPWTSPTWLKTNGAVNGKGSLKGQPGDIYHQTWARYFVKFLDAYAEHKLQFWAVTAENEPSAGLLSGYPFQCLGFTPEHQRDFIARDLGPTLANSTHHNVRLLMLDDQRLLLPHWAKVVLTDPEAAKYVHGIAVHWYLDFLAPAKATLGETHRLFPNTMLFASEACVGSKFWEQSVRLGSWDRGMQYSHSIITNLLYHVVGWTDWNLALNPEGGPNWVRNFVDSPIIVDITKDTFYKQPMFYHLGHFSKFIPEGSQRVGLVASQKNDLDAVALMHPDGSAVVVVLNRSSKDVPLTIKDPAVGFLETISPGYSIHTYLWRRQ

This assay concerns the target Lysosomal acid glucosylceramidase (Homo sapiens) (UniProt P04062). The assay is described as follows: Glucocerebrosidase.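 Further: the screen sought inhibitors.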 The note with it: purified enzyme, resorufin glucoside fluorescence (screen aimed at inhibitors), 20 min. Summed up:
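Compounds titrated against 0.2 nM normal enzyme, 30 uM resorufin beta-D-glucopyranoside substrate, citrate/phosphate buffer with taurocholate and tween-20, pH 5.9. Reaction ran 20 min at room temperature; fluorescence (Ex 548/Em 600) gave AC50.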
As to `CCOC(=O)N1CCN(C(=O)c2cn(CCOC)c(=O)c3c2c2ccccc2n3C)CC1`, the Potency is inactive: > 76.9 µM. Take `CC(=O)Nc1ccc(S(=O)(=O)NCC2CCC(C(=O)NCCC(C)C)CC2)cc1` (stereo not given): the Potency was inactive: > 76.9 µM. `CCOc1ccccc1NC(=O)Cn1nnc(C(=O)Nc2ccccc2Cl)c1N`: the Potency is inactive: > 76.9 µM. On to `O=C(c1ccccc1)N1CCN(CC(O)COCC2CC=CCC2)CC1` (stereo not given), for which the Potency is inactive: > 76.9 µM. Under `Cc1ccc(S(=O)(=O)N(Cc2nccn2C)C(C)C)cc1` stands inactive: > 76.9 µM. Consider `CC(CS(=O)(=O)c1cccc2cccnc12)N1CCCCC1` (stereo not given), for which the Potency is inactive: > 76.9 µM.

In the case of `COc1ccc2cc3cc(C(=O)Nc4ccc5c(c4)OCCO5)oc3nc2c1`, the Potency is inactive: > 76.9 µM. In the case of `Cc1cc2oc(C(=O)N(Cc3ccco3)C3CCS(=O)(=O)C3)cc(=O)c2cc1Cl` (stereo not given), the Potency is inactive: > 76.9 µM. As for `CC(=O)c1ccc(N2CCN(C(=O)C3CCN(S(=O)(=O)Cc4ccccc4)CC3)CC2)cc1`, the Potency was inactive: > 76.9 µM. For the molecule `O=C(CN1CCC(NC(=O)c2cccc(F)c2)CC1)NCc1ccccc1F`, the Potency was inactive: > 76.9 µM. For `COc1ccc(-c2noc(-c3ccco3)n2)cc1OC`, the Potency was inactive: > 76.9 µM. Take `NC(=O)CSc1nnc(-c2cnccn2)n1-c1ccccc1`: the Potency is inactive: > 76.9 µM.

As for `CCCCn1c(SCC(=O)N2CCC(C)CC2)nc2cc(S(N)(=O)=O)ccc21`, the Potency was inactive: > 76.9 µM. With `COCCNC(=O)C(c1ccc(C)o1)N(Cc1ccc(OC)cc1)C(=O)Cn1nnc2ccccc21` (stereo not given), the Potency is inactive: > 76.9 µM. Consider `Cc1ccc(-n2c(=O)c(C#N)cc3c(=O)n4ccccc4nc32)cc1`, for which the Potency is inactive: > 76.9 µM. Consider `COc1ccc(C(=O)COC(=O)Cn2nnc3ccccc32)cc1Br`, for which the Potency is inactive: > 15.4 µM. As for `O=C(CN1C(=O)COc2ccccc21)N1CCc2ccccc21`, the Potency was inactive: > 76.9 µM.

For the molecule `c1ccc(-c2csc(-n3cnnn3)n2)cc1`, the Potency was inactive: > 76.9 µM. In the case of `Cc1ccc(-n2ncc(C(=O)N3CCc4ccccc4C3)c2NC(=O)c2ccco2)cc1C`, the Potency was inactive: > 76.9 µM.

With `CCOc1ccc(-c2nnn(CC(=O)NCc3ccco3)n2)cc1`, the Potency was inactive: > 76.9 µM. Take `COc1cc(Cn2c(=O)oc3ccc(C)cc32)ccc1OC(C)C`: the Potency is inactive: > 76.9 µM. As for `CCOC(=O)N1CCN(S(=O)(=O)c2ccc(Br)s2)CC1`, the Potency is inactive: > 76.9 µM.

`CCc1ccccc1N1CC(C(=O)O)CC1=O` (stereo not given): the Potency was inactive: > 76.9 µM. `C=CCSC1=C(C#N)C(c2cc(Br)c(O)c(OC)c2)CC(=O)N1` (stereo not given): the Potency is inactive: > 76.9 µM. For the molecule `CCOC(=O)N1CCN(S(=O)(=O)c2c(C)nn(C)c2C)CC1`, the Potency is inactive: > 76.9 µM. Under `Clc1cccc(-c2nnc3sc(-c4ccc5c(c4)OCO5)nn23)c1` stands inactive: > 76.9 µM. On to `Cc1ccc(-n2c(C)cc(C(=O)CSc3nnnn3C)c2C)cc1`, for which the Potency was inactive: > 76.9 µM. `Cc1ccc(C)c(Cn2c(=O)n(CCC(=O)NCc3ccco3)c(=O)c3sccc32)c1`: the Potency is inactive: > 76.9 µM. Turning to `COc1cccc(C2C(C(=O)NCc3ccccc3)=C(C)Nc3ncnn32)c1` (stereo not given), the Potency was inactive: > 76.9 µM. The figure for `COc1ccc(OC)c(CNC(=O)CCN2C(=O)COc3ccccc32)c1` is inactive: > 76.9 µM. For `CN1CCN(CC(=O)C23CC4CC(CC(C4)C2)C3)CC1`, the Potency is inactive: > 76.9 µM. As to `O=C(c1cc2nc(-c3ccccc3)cc(-c3ccccc3)n2n1)N1CCN(C(=O)c2ccco2)CC1`, the Potency was inactive: > 76.9 µM. The figure for `c1ccc(CNc2nc3ccccc3[nH]2)cc1` is inactive: > 15.4 µM.

With `O=C1CCCC2=C1C(c1ccncc1)c1c(nc(SCc3ccccc3Cl)[nH]c1=O)N2` (stereo not given), the Potency is inactive: > 76.9 µM. For `OCCN(Cc1ccccc1)CC1CC2C=CC1C2` (stereo not given), the Potency was inactive: > 76.9 µM. The figure for `O=C(CN1CCC(n2nnc3cc(F)ccc32)CC1)NCc1ccco1` is inactive: > 76.9 µM; for `Clc1ccccc1C1=Nn2c(nnc2-c2ccncc2)SC1` it is inactive: > 76.9 µM. Turning to `COc1cccc(C(=O)Cn2c(Br)nc3c2c(=O)n(C)c(=O)n3C)c1`, the Potency is inactive: > 76.9 µM.

`CC1(C)CC(CC(=O)Nc2ccccn2)C(=O)O1` (stereo not given): the Potency is inactive: > 76.9 µM. For `O=C(CSc1nnc(-c2ccco2)n1Cc1ccccc1)c1ccc(F)cc1`, the Potency is inactive: > 76.9 µM. Under `CCCCn1c(SCC(=O)N2CCCc3ccccc32)nc2c1c(=O)n(C)c(=O)n2C` stands inactive: > 76.9 µM. As for `Cc1c(Cl)cccc1NC(=O)CN1CCN(CCO)CC1`, the Potency was inactive: > 76.9 µM. As for `c1cn2cc(CN3CCOCC3)nc2s1`, the Potency is inactive: > 76.9 µM. Turning to `CN1C(=O)c2ccc(C(=O)NC3CCCCC3)cc2C1=O`, the Potency is inactive: > 76.9 µM. On to `Cc1cc(C)cc(N(C(=O)CNC(=O)c2ccco2)C(C(=O)NC2CCCC2)c2cccnc2)c1` (stereo not given), for which the Potency is inactive: > 76.9 µM. For the molecule `Cn1c(CNC(=O)Cc2ccc3c(c2)OCO3)nnc1SCc1ccccc1`, the Potency was inactive: > 76.9 µM. Take `O=C(CCCc1nc(-c2ccccc2)no1)Nc1cccnc1`: the Potency was inactive: > 76.9 µM.

Take `CC(C)CCOP(=O)(c1ccc(N(C)C)cc1)C(O)c1ccccn1` (stereo not given): the Potency is inactive: > 76.9 µM.

`COc1ccc(NC(=O)C2CC(=O)N(c3cccc(C)c3C)C2)cc1` (stereo not given): the Potency was inactive: > 76.9 µM. Turning to `Cc1cccc(-n2c(SCC(=O)Nc3nonc3C)nnc2-c2ccoc2C)c1`, the Potency was inactive: > 76.9 µM. The figure for `CC(OCc1ccccc1)C(NC(=O)OC(C)(C)C)C(=O)NCC1CCCO1` (stereo not given) is inactive: > 76.9 µM; for `O=C(CN(Cc1ccco1)C(=O)CNS(=O)(=O)c1ccccc1)NC1CCCCC1` it is inactive: > 76.9 µM; for `O=C(NC1CCN(Cc2nnnn2CCc2ccccc2)CC1)c1ccccc1F` it is inactive: > 76.9 µM. Consider `Cc1nc2ncnn2c(N2CCN(C(=O)c3cccc(F)c3)CC2)c1Cc1ccccc1`, for which the Potency is inactive: > 76.9 µM. As for `Cc1oc(-c2ccccc2)nc1C(=O)Nc1nccs1`, the Potency was inactive: > 76.9 µM. In the case of `O=C(Cn1nnc(-c2ccccc2)n1)Nc1ccccc1N1CCOCC1`, the Potency was inactive: > 76.9 µM.

For the molecule `Cc1cc(C)c(NC(=O)CS(=O)CC(=O)Nc2cccnc2)c(C)c1` (stereo not given), the Potency was inactive: > 76.9 µM. For the molecule `CC1CC2(C)Oc3ccccc3C3OCC1(CO)C(C)C32` (stereo not given), the Potency was inactive: > 76.9 µM. As to `CCC(C(=O)Nc1nnc(-c2ccco2)s1)c1ccccc1` (stereo not given), the Potency is inactive: > 76.9 µM. `COC(=O)C(C)C1Sc2ccccc2NC1=O` (stereo not given): the Potency was inactive: > 76.9 µM.

As for `COc1ccc(CCNc2oc(Cc3ccccc3)nc2C#N)cc1OC`, the Potency is inactive: > 76.9 µM. As to `COc1ccc(-c2nnc(SCC(=O)c3ccco3)n2-c2ccccc2)cc1`, the Potency was inactive: > 76.9 µM.

On to `CC(=O)NCCN=C(C)c1sc2ccccc2c1O`, for which the Potency was inactive: > 76.9 µM. For the molecule `O=C(CCNC(=O)Cn1cnc2ccccc2c1=O)NCC1COc2ccccc2O1` (stereo not given), the Potency is inactive: > 76.9 µM. As for `CCCCc1c(O)nc(SCC(=O)NCC2CCCO2)[nH]c1=O` (stereo not given), the Potency is inactive: > 76.9 µM. For `Cc1cc(OCc2nn[nH]n2)c2c(C)c(CC(=O)O)c(=O)oc2c1`, the Potency was inactive: > 76.9 µM. The figure for `COc1ccc(OCC(=O)Nc2ccc3c(c2)nc(CCN2CCOCC2)n3C)cc1` is inactive: > 76.9 µM. Turning to `Oc1ccc(-c2csc(Nc3cccnc3)n2)cc1`, the Potency is inactive: > 76.9 µM.

In the case of `CCC(c1nnnn1Cc1ccccc1)N(Cc1cc2cc(OC)ccc2[nH]c1=O)CC1CCCO1` (stereo not given), the Potency was inactive: > 76.9 µM.

On to `COc1ccc(CCNC(=O)C2CCN(S(=O)(=O)c3cccc4nonc34)CC2)cc1OC`, for which the Potency is inactive: > 76.9 µM.

For the molecule `Nc1ccc(C23CC4CC(CC(O)(C4)C2)C3)cc1`, the Potency was inactive: > 76.9 µM. The figure for `COc1ccc(CNC(=O)CSc2nnnn2Cc2ccccc2)cc1` is inactive: > 76.9 µM; for `Cc1ccc(NC(=O)CC2SC3=NCCCN3C2=O)c(C)c1` (stereo not given) it is “inactive”; for `CCOC(=O)N1CCN(C(=O)CN(c2ccc(OCc3ccccc3)cc2)S(C)(=O)=O)CC1` it is inactive: > 76.9 µM. With `Cn1c(=O)c2[nH]cnc2n(-c2ccccc2)c1=O`, the Potency was inactive: > 76.9 µM. The figure for `COCCCNS(=O)(=O)c1ccc2c3c(cccc13)C(=O)S2` is inactive: > 76.9 µM; for `O=C(CCc1nc(-c2cccs2)no1)Nc1cnc2ccccc2c1` it is inactive: > 76.9 µM; for `COc1ccccc1NC(=O)CN1C(=O)NC(CC(C)C)C1=O` (stereo not given) it is inactive: > 76.9 µM. For the molecule `COc1ccc(C(=O)NC(C(=O)NCc2ccccn2)C(C)C)cc1` (stereo not given), the Potency is inactive: > 76.9 µM.

For `CS(=O)(=O)c1ccc2nc(N)sc2c1`, the Potency was inactive: > 76.9 µM. The figure for `COc1ccc(C2=NOC(C(=O)NCCCN3CCOCC3)C2)cc1` (stereo not given) is inactive: > 76.9 µM; for `C=CCNc1nc(N)c(C(=O)c2ccc3c(c2)OCO3)s1` it is “inactive”; for `COC(=O)c1[nH]c2cc(OC)ccc2c1NC(=O)CN1CCOCC1` it is inactive: > 76.9 µM. The figure for `Cc1oc(-c2ccccc2F)nc1CN1CCC(C(=O)NCc2cccnc2)CC1` is inactive: > 76.9 µM; for `O=C1CC(C(=O)N(CC2CCCO2)C(C(=O)NC2CCCCC2)c2ccncc2)CS1` (stereo not given) it is inactive: > 76.9 µM; for `CCOc1cccc2cc(C(=O)N3CCc4ccccc4C3)c(=O)oc12` it is inactive: > 76.9 µM. For `COCCCNC(=O)CCCC(=O)NCCCOC`, the Potency was inactive: > 76.9 µM. As for `CCc1ccc(CN2C(=O)CCC2(C)C(=O)NC2CCCC2)cc1` (stereo not given), the Potency is inactive: > 76.9 µM. The figure for `CCn1c(=O)cc(OCC(=O)NCc2ccc(C)o2)c2ccccc21` is inactive: > 76.9 µM. For the molecule `Cc1ccccc1S(=O)(=O)Cc1ccc(C(=O)N2CCN(c3ncccn3)CC2)o1`, the Potency was inactive: > 76.9 µM.
